Reference: the supplement of paper PMC4967469
The IC50 comes from the fitted curve, where viability falls to half of the control; where the fit passes the top or lowest dose, that dose stands as a limit. The AUC spans the tested range (256-fold, ending at the top dose) of the same fit; values near 1 show little effect. For part of these data: The top dose, if marked as inferred, is not printed in the source and was worked back from the curve model. For part of these data: Drugs with an entry number were screened twice under separate entries, and the two screens often disagree.

Tests used:
Experiment in all cases: Viability of human cancer cell lines after 72 h of drug (GDSC screen)
JNK-9L = compound: Fc1cc(-c2ccnc(Nc3ccc(-n4cnc(N5CCOCC5)n4)cc3)n2)cc(N2CCOCC2)c1 [JNK-9L]; settings: top dose 5.12 µM; top dose inferred
Description: (§1)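 Human cancer cell lines in 384-well plates, medium with 10% serum, drug for 72 h over a 256-fold dose range (nine 2-fold or five 4-fold steps up to the top dose). Adherent lines were fixed and stained with the nucleic acid dye Syto60, suspension lines read with resazurin; signal relative to control wells, capped at 0 and 100%. One two-parameter sigmoid per drug and line, fitted in a mixed model over all curves with the slope shared within a line.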

AC220 = compound: CC(C)(C)c1cc(NC(=O)Nc2ccc(-c3cn4c(n3)sc3cc(OCCN5CCOCC5)ccc34)cc2)no1 [AC220]; settings: top dose 1.024 µM; top dose inferred
Description: as §1

CUDC-101 = compound: C#Cc1cccc(Nc2ncnc3cc(OC)c(OCCCCCCC(=O)NO)cc23)c1 [CUDC-101]; settings: top dose 5.12 µM; top dose inferred
Description: as §1

OSU-03012 = compound: NCC(=O)Nc1ccc(-n2nc(C(F)(F)F)cc2-c2ccc3c(ccc4ccccc43)c2)cc1 [OSU-03012]; settings: top dose 16 µM; top dose inferred
Description: as §1

5-Fluorouracil = compound: O=c1[nH]cc(F)c(=O)[nH]1 [5-Fluorouracil]; settings: top dose 32 µM; top dose inferred
Description: as §1

RDEA119 = compound: COc1cc(F)c(F)c(Nc2ccc(I)cc2F)c1NS(=O)(=O)C1(C[C@H](O)CO)CC1 [RDEA119]; settings: top dose 5 µM, top dose inferred
Description: as §1

QS11 = compound: OC[C@H](Cc1ccccc1)Nc1nc(Oc2ccc3c(c2)CCC3)nc2c1ncn2Cc1ccc(-c2ccccc2)cc1 [QS11]; settings: top dose 10.24 µM
Description: as §1

Row | Cell Line | AUC (JNK-9L) | IC50 (JNK-9L) | AUC (AC220) | IC50 (AC220) | AUC (CUDC-101) | IC50 (CUDC-101) | AUC (OSU-03012) | IC50 (OSU-03012) | AUC (5-Fluorouracil) | IC50 (5-Fluorouracil) | AUC (RDEA119; screen: GDSC drug entry 1014) | IC50 (RDEA119; screen: GDSC drug entry 1014) | AUC (RDEA119; screen: GDSC drug entry 1526) | IC50 (RDEA119; screen: GDSC drug entry 1526) | AUC (QS11) | IC50 (QS11)
1 | DND-41 (T-cell leukaemia, suspension) | 0.502 | 324 nM | 0.917 | > 1020 nM | 0.255 | 70.7 nM | 0.529 | 1180 nM | 0.671 | 5630 nM | 0.735 | 1330 nM | 0.876 | 3970 nM | 0.815 | 4790 nM
2 | DSH1 (bladder, adherent) | 0.634 | 738 nM | 0.955 | > 1020 nM | 0.378 | 150 nM | 0.987 | > 16000 nM | 0.965 | > 32000 nM | 0.936 | > 5000 nM | 0.93 | > 5000 nM | 0.719 | 2590 nM
3 | DU-4475 (breast, suspension) | 0.602 | 575 nM | 0.991 | > 1020 nM | 0.415 | 196 nM | 0.707 | 3370 nM | 0.63 | 4240 nM | 0.187 | 46.5 nM | 0.247 | 69.5 nM | 0.665 | 1670 nM
4 | Daoy (medulloblastoma, adherent) | 0.635 | 724 nM | 0.973 | > 1020 nM | 0.4 | 174 nM | 0.579 | 1610 nM | 0.748 | 9470 nM | – | – | 0.953 | > 5000 nM | 0.765 | 3430 nM
5 | Daudi (Burkitt lymphoma, suspension) | 0.514 | 347 nM | 0.991 | > 1020 nM | 0.346 | 127 nM | 0.634 | 2220 nM | 0.811 | 14300 nM | 0.991 | > 5000 nM | 0.99 | > 5000 nM | 0.911 | > 10200 nM
6 | Detroit562 (head and neck, adherent) | 0.505 | 331 nM | 0.988 | > 1020 nM | 0.744 | 1540 nM | 0.8 | 7370 nM | 0.975 | > 32000 nM | 0.894 | > 5000 nM | 0.906 | > 5000 nM | 0.97 | > 10200 nM
7 | DoTc2-4510 (cervix, adherent) | 0.422 | 198 nM | 0.98 | > 1020 nM | 0.422 | 198 nM | 0.632 | 2260 nM | 0.955 | > 32000 nM | 0.95 | > 5000 nM | – | – | 0.925 | > 10200 nM
8 | EB2 (Burkitt lymphoma, suspension) | 0.614 | 638 nM | 0.93 | > 1020 nM | 0.412 | 188 nM | 0.75 | 4800 nM | 0.542 | 2570 nM | 0.99 | > 5000 nM | 0.984 | > 5000 nM | 0.959 | > 10200 nM
9 | EBC-1 (lung squamous cell carcinoma, adherent) | 0.733 | 1630 nM | 0.983 | > 1020 nM | 0.725 | 1540 nM | 0.827 | 11500 nM | 0.966 | > 32000 nM | 0.558 | 459 nM | 0.622 | 710 nM | 0.976 | > 10200 nM
10 | EC-GI-10 (oesophagus, adherent) | 0.797 | 2380 nM | 0.989 | > 1020 nM | 0.684 | 1040 nM | 0.972 | > 16000 nM | 0.948 | > 32000 nM | 0.618 | 659 nM | 0.789 | 2180 nM | 0.984 | > 10200 nM
11 | ECC10 (stomach, suspension) | 0.554 | 454 nM | 0.97 | > 1020 nM | 0.7 | 1200 nM | 0.681 | 3290 nM | 0.872 | > 32000 nM | 0.769 | 1970 nM | 0.728 | 1440 nM | 0.903 | > 10200 nM
12 | EFM-19 (breast, adherent) | 0.602 | 704 nM | 0.947 | > 1020 nM | 0.439 | 201 nM | 0.727 | 6300 nM | 0.914 | > 32000 nM | – | – | 0.974 | > 5000 nM | 0.975 | > 10200 nM
13 | EFM-192A (breast, adherent) | 0.283 | 71.7 nM | 0.98 | > 1020 nM | 0.677 | 1060 nM | 0.521 | 1150 nM | 0.931 | > 32000 nM | 0.959 | > 5000 nM | 0.981 | > 5000 nM | 0.764 | 4110 nM
14 | EFO-21 (ovary, adherent) | 0.662 | 1100 nM | 0.968 | > 1020 nM | 0.786 | 3350 nM | 0.84 | > 16000 nM | 0.854 | > 32000 nM | 0.908 | > 5000 nM | 0.941 | > 5000 nM | 0.941 | > 10200 nM
15 | EFO-27 (ovary, adherent) | 0.517 | 360 nM | 0.978 | > 1020 nM | 0.509 | 340 nM | 0.704 | 4390 nM | 0.664 | 6440 nM | 0.633 | 799 nM | 0.849 | > 5000 nM | 0.938 | > 10200 nM
